The record followed here is ChEMBL document CHEMBL5308541, “MAIP: An Open-Source Tool to Enrich High-Throughput Screening Output and Identify Novel, Druglike Molecules with Antimalarial Activity” (ACS Med Chem Lett, 2023).

Each structure is given as a SMILES string. About 540 (0.36%) of roughly 150,000 compounds showed an effect of 50% or more. Some of the results follow.

The test system of the assay is Plasmodium falciparum. As to the kind of experiment: Primary screen in NF54 nanoGlo assay, in single point, at 2uM, 72h; a lower Z score goes with more inhibition. The format is functional, Erythrocyte. The settings on record: timepoint 72 hour.
The % Inhibition is the drop in the measured response relative to a control, in per cent. Consider `Clc1cnc2nc(N[C@H]3CCCN(CCN4CCOCC4)C3)ccc2c1`, for which the “% Inhibition” value was 2% and the Z score was -0.42.
The like results for `c1nc2n(c1CN1CCC3CCCCC31)CCOC2` (centres undefined) were, in that order, 6% and -0.85.
On to `COc1ccc2[nH]cc(-c3ccc(N)nc3)c2c1`, for which the “% Inhibition” value worked out at 20% and the Z score was -4.06.
Consider `O=C1CCC2(C(=O)NCCc3c[nH]c4ccc(F)cc34)N1c1ccccc1C(=O)N2C1CC1` (centres undefined), for which the “% Inhibition” value is on record as -3% and the Z score was 0.68.
The like results for `CCn1ccnc1CN1CC2CN(c3nnc(C)c4ccccc34)CC2(CO)C1` (centres undefined) were, in that order, 5% and -0.89.
Turning to `CN(C[C@H]1Cc2ccccc2CN1C)c1cncc(C(=O)N2CCCC2)n1`, the “% Inhibition” value was -9% and the Z score amounted to 1.56.
In the same order, the values of `NC1CCCCCC1NCCCC1CCCN1` (centres undefined) are 4% and -0.84.
In the same order, the values of `O=C(O)CN1CCC(NS(=O)(=O)c2cnc3ccccc3c2)CC1` are -10% and 2.08.
In the same order, the values of `O=C(Cc1c[nH]c2ncccc12)NCC1CN(C(=O)c2ccccc2)C2CCN1C2` (centres undefined) are -4% and 0.72.
`CNc1nc(C)cc(N2CCC(N(C)CCn3ccc4ccccc43)CC2)n1`: the “% Inhibition” value was 15% and the Z score is recorded as -2.6.
The like results for `c1cc(-c2cnc3nn[nH]c3c2)c2cc[nH]c2c1` were, in that order, 0% and -0.09.
In the same order, the values of `C[C@@H](CC(F)(F)F)NCc1nc2cc(F)ccc2[nH]1` are 2% and -0.5.
In the same order, the values of `Cc1cc2cccc(C(=O)N(CCN(C)C)Cc3nc[nH]c3C)c2o1` are -3% and 0.57.
Consider `CCCNc1ncc(CN2CCC[C@H](c3nc4c(C)cccc4[nH]3)C2)cn1`, for which the “% Inhibition” value is listed as -4% and the Z score was found to be 0.78.
In the same order, the values of `c1nc(NCC2CC2)cc(N2CCCN(C3CCOCC3)CC2)n1` are 0% and -0.11.
The like results for `CS(=O)(=O)c1cc(CNC2CC3CCC(C2)N3)cc(C(F)(F)F)c1` (centres undefined) were, in that order, -9% and 1.59.
In the same order, the values of `COCCN1CCN(C[C@@H](O)CN2CCC(C)CC2)CC1` are 5% and -0.92.
For `CCN(C(=O)NC1CCN(C2CCN(C)CC2)CC1)[C@@H](C)c1cccnc1`, the “% Inhibition” value came out at 1% and the Z score is on record as -0.15.
Turning to `COc1ccc2c(c1F)CC[C@@H]2NC1CCN(Cc2ccc(F)c(F)c2)CC1`, the “% Inhibition” value came to 10% and the Z score is recorded as -1.53.
The like results for `CCN1CCN(CC2CN(Cc3ccc(-c4nn[nH]n4)cc3)CC2CO)CC1` (centres undefined) were, in that order, 1% and -0.15.
In the same order, the values of `CNC(=O)CN1CCC(Nc2ncnc3ccc(C(C)C)cc23)CC1` are 2% and -0.48.
The like results for `COc1ccc(C[C@H](C)CNC2CCN(c3cc(C)nc(C)n3)CC2)cc1F` were, in that order, 10% and -1.78.
Regarding `C[C@H](NCc1cc(-c2cnn(C)c2)no1)c1cccc(-n2ccnc2)c1`, the “% Inhibition” value turned out to be 0% and the Z score is recorded as -0.05.
The like results for `Cc1ncnc(N2CCN(C3CCN(c4ccc5c(c4)OCO5)CC3)CC2)c1C` were, in that order, -13% and 2.29.
The like results for `Cc1cccc(C)c1Nc1ccnc(Nc2c(C)cccc2C)n1` were, in that order, -8% and 1.27.
In the same order, the values of `Cc1cc(NC[C@H]2CN(CC(C)C)CCO2)c2ccccc2n1` are 33% and -7.06.
As to `c1cnc(NCCCCN2CCOCC2)cn1`, the “% Inhibition” value is listed as 2% and the Z score is -0.24.
As for `Cc1c([C@H]2CNC[C@@H]2C(=O)N2CCN(CC3CC3)CC2)cnn1C`, the “% Inhibition” value was -7% and the Z score worked out at 1.04.
The like results for `FC(F)(F)c1nccc(NCCCN2CCOCC2)n1` were, in that order, 4% and -0.75.
For the compound `Cc1ccc(CN(C)CC(=O)NC(C2CCNCC2)[C@H]2C[C@H](O)C2)cc1` (some centres undefined), the “% Inhibition” value worked out at 6% and the Z score is reported as -1.04.
In the same order, the values of `Cc1ccc(-c2cc(Nc3cc(C)ccc3O)nc(C)n2)cc1` are 6% and -1.08.
Turning to `COc1ccc(CNc2nc(NCc3ccc(OC)nc3)nc(N3CCOCC3)n2)cn1`, the “% Inhibition” value is listed as -2% and the Z score was determined as 0.46.
For the compound `Cc1sc(=O)n(CCC(=O)Nc2nn(C(C)C)cc2C#N)c1C`, the “% Inhibition” value is recorded as -7% and the Z score is recorded as 1.17.
For `COc1cccc(CN2CCC[C@@]3(CCN(c4ncnc5[nH]ccc45)C3)C2)c1`, the “% Inhibition” value is listed as -9% and the Z score is listed as 1.67.
The like results for `CN(C)CCN1CCC(NC2CCC(O)(c3cccc(Cl)c3)CC2)CC1` (centres undefined) were, in that order, 33% and -5.06.
In the same order, the values of `COC(=O)Nc1cccc(N[C@@H]2COC(C)(C)C2)c1` are -7% and 1.05.
In the same order, the values of `CCOC(=O)c1cnc(NC2CCN(C3CCOCC3)CC2)nc1C` are -3% and 0.58.
For `COc1ccc(CNc2cccc(C(=O)NCCO)c2C)cc1Cl`, the “% Inhibition” value was -8% and the Z score turned out to be 1.5.
In the same order, the values of `c1cc(-c2ccnc(NCc3ccc4nonc4c3)n2)ccn1` are -1% and 0.19.
The like results for `COc1cccc2ccc(CNCCCCN3CCCCCC3)nc12` were, in that order, -4% and 0.7.
Regarding `COc1ccc(CCNc2cc(C)nc3c(-c4ccc(Cl)cc4)c(C(F)(F)F)nn23)cc1OC`, the “% Inhibition” value is on record as -5% and the Z score is 0.79.
With `CC(C)C[C@H]1C(=O)NCCN1S(=O)(=O)Cc1cccc2cccnc12`, the “% Inhibition” value is recorded as -6% and the Z score was found to be 1.08.
